Results published in ChEMBL document CHEMBL4888484, “Replenishing the malaria drug discovery pipeline: Screening and hit evaluation of the MMV Hit Generation Library 1 (HGL1) against asexual blood stage Plasmodium falciparum ,using a nano luciferase reporter read-out” (2022).
In all, about 150,000 compounds went through this assay and about 540 (0.36%) showed an effect of 50% or more. The list shows a part of the results.

Test system: Plasmodium falciparum
Experiment: Primary screen in NF54 nanoGlo assay, in single point, at 2uM, 72h; a lower Z score goes with more inhibition
Type: functional, Erythrocyte
Conditions: timepoint 72 hour

SMILES | % Inhibition [%] | Z score
COc1ccc2c(c1)CCN(C[C@H]1CCOC1)C2 | -1 | 0.26
Cc1c(Cl)cccc1NC(=O)NC[C@H](c1cccnc1)c1c[nH]c2ccccc12 | -5 | 1.04
O=c1c[n+]([O-])c2ccccc2n1OCc1ccccn1 | -13 | 1.79
CC[C@H]1C(=O)NCCN1c1c(C#N)c(=O)n(C)c(=O)n1C | -9 | 1.18
Cc1nc2c(c(=O)n1C)CN(C(=O)c1c[nH]nc1-c1ccccc1)C2 | 12 | -1.7
Cc1cccc(NC(=O)N2CC(n3cc(C4CC4)nn3)C2)c1 | 6 | -0.72
Cc1c(NC(=O)Cn2c(COc3ccccc3)nc3ccccc32)c(=O)n(-c2ccccc2)n1C | -17 | 3.23
CC(C)CCNC(=O)[C@@H]1COCCO1 | -8 | 1.09
Cc1nsc(NCC2(O)CCCC2)n1 | -9 | 1.13
CCN(C(=O)c1cc(C(C)C)n(C)n1)[C@@H](C)COC | -3 | 0.33
O=C(O)Cc1occc1C(=O)N1CCC2(CCCCC2)C1 | 13 | -1.69
CCn1cc(C(CC(=O)NC(C)CCc2ccccc2)c2cccc(Cl)c2)c2ccccc21 (centres undefined) | -13 | 1.74
CC1(C)OCC[C@@H]1NCc1ccc(Cn2cccn2)cc1 | -8 | 1.44
O=C(Nc1ccc(C2CC2)c(F)c1)N1CCC(Nc2nccs2)CC1 | -10 | 1.32
COCCS(=O)(=O)N1CCN(c2cccc3[nH]cnc23)CC1 | -5 | 1.02
Cc1ccc(NC(=O)Cn2cnc3c(C(N)=O)nsc3c2=O)c(C)c1 | -20 | 2.65
O=S(=O)(NCC1(C2CC2)CCC1)c1cncc(Cl)c1 | -9 | 0.97
COc1cccc(CC2(C(=O)O)CCN(c3ncnc4[nH]ccc34)CC2)c1 | -9 | 1.05
O=C(Nc1ccc2c(c1)OCO2)c1cc(-c2cccc3ccccc23)[nH]n1 | 1 | -0.15
Cn1cc(NC(=O)CN2CCC[C@H](C(=O)Cc3ccccc3)C2)cn1 | 1 | -0.08
CCn1ncnc1-c1nccn1CCOc1ccccc1 | -2 | 0.21

SMILES | % Inhibition [%] | Z score
CCn1nnnc1NC(=O)N[C@@]1(C)CCOc2ccccc21 | -4 | 0.64
Cc1ccc(OCC(=O)Nc2cc3ccccc3cc2NC(=O)COc2ccc(C)cc2)cc1 | 10 | -1.23
Cc1nn(C)c(C)c1-c1cc(C(=O)N[C@@H](C)[C@H](O)c2ccccc2)n(C)n1 | -5 | 0.9
Cc1[nH]cnc1CN1CCN(C)[C@H](c2ccccc2)C1 | -2 | 0.43
COc1ccc(-c2noc(-c3nn(-c4ccc(C)c(C)c4)ccc3=O)n2)cc1OC | 1 | -0.19
CN(C)C(=O)C[C@H]1CN(Cc2cnn(C)n2)c2ccc(Cl)cc21 | -3 | 0.41
CN1CCCN(C(=O)[C@@H]2CCCCC(=O)N2Cc2ccccc2)CC1 | 0 | 0.07
CC1CCCN(S(=O)(=O)NC(C)C(=O)Nc2ccccc2)C1 (centres undefined) | -5 | 0.59
CC1CN(C2CC2)CC1NS(=O)(=O)CC1CCOCC1 (centres undefined) | -5 | 0.7
Cn1c(C(=O)NCc2cccc(F)c2)c(N2CCCC2=O)c2cc(F)ccc21 | 4 | -0.66
O=C1NCC2(CN(C(=O)c3cc(-c4ccc(F)cc4)n[nH]3)C2)N1 | 1 | -0.16
CCC[C@H]1CN(CC(N)=O)C[C@@H]1NC(=O)c1nn(C)c(C)c1Cl | -3 | 0.41
Cc1nn(-c2ccccc2)c2nc(C3CC3)nc(N3CCN(C(=O)c4cccc(F)c4)CC3)c12 | -13 | 1.38
CCC(CC)n1nc(C)cc1C(=O)N1C[C@@H]2CS(=O)(=O)C[C@@H]2C1 | -6 | 1
Cc1nn(C)cc1C(=O)N1CCCC[C@@H]1CCc1ccccc1 | -1 | 0.17
Cc1nc(N2CCCCCCC2)ncc1[C@H](C)NCc1cnc(C)n1C | -7 | 1.23
COc1cccc(C(=O)Nc2ccc(OCc3nnc(-c4ccc(F)cc4)o3)cc2)c1OC | -11 | 1.31
O=C(NCCNC(=O)C(F)(F)F)[C@H]1C[C@H]2C=C[C@@H]1C2 | -10 | 1.96
COc1cccc(COCc2ncc[nH]2)c1Cl | 0 | -0.02
CCCN1C[C@@H]2CC[C@H]1CN(C(=O)c1cnc(N3CCCCC3)nc1C)C2 | -2 | 0.23
CCOc1ccc(C(=O)N(CCN(C)C)CC(=O)OC(C)(C)C)cc1 | -2 | 0.3

SMILES | % Inhibition [%] | Z score
Cc1ccc(N(C)S(=O)(=O)N2CCCC2)cc1Cl | -10 | 1.33
Cc1ccc([C@H](C)NC(=O)CCc2ccc3[nH]cnc3c2)cc1 | -2 | 0.33
Cc1cc(F)ccc1N1CCC[C@H](N2CCCN(C(C)C)CC2)C1=O | -10 | 1.28
CO[C@H]1CCCOC12CCN(C(=O)Cn1[nH]c3ccccc3c1=O)CC2 | -7 | 1.28
CCOc1ccccc1NC(=O)Cn1ccn2nc3c(c2c1=O)CCCC3 | -18 | 1.69
CC1CN(C(=O)C2CC(C)(C)C2)CC(c2ccc(F)cc2)O1 (centres undefined) | 0 | 0.03
COc1ccc(CN(CC(=O)N2CCCc3ccccc32)[C@H]2CCS(=O)(=O)C2)cc1 | 9 | -1.23
COc1cccc(CO[C@H]2CCCN(C(=O)c3cccc(Br)c3)C2)c1 | 15 | -2.03
CN(C)C(=O)CCc1ncnn1C1CCCCC1 | -2 | 0.38
Cc1nc([C@@]2(CC3CC3)CCCN(S(=O)(=O)c3cc(F)cc(F)c3)C2)no1 | 0 | 0.02
O=C(c1cc2ccccc2[nH]1)N1CCN2CCS(=O)(=O)N(C3CC3)C(=O)[C@@H]2C1 | -6 | 0.84
CC[C@@H](CC#N)NC(=O)C1(C)CN(C(=O)OC(C)(C)C)C1 | -2 | 0.3
Cn1ncc(CNC(=O)c2cnc3c(c2)c(C(F)(F)F)nn3C)n1 | -12 | 2.26
O=C1CC[C@@]2(CCCN(C(=O)c3ccccc3O)C2)CN1CCc1c[nH]cn1 | -7 | 1.06
CS(=O)(=O)N[C@H]1C[C@@H]2C[C@H]1N(C(=O)NCc1cccc(F)c1)C2 | 39 | -4.38
Cc1[nH]ccc1C(=O)N1C[C@@H](CN2CCOCC2)C[C@H](CO)C1 | -1 | 0.22
CC(NC1CCc2[nH]ncc2C1)c1ccc(S(C)(=O)=O)c(F)c1 (centres undefined) | -10 | 1.32
COc1ccc(C(NC(=O)C(=O)c2cccnc2)[C@H]2C[C@@H](O)C2)cc1F (some centres undefined) | -16 | 2.69
Fc1ccc(CN2CCC[C@](CC3CC3)(c3noc(C4CCOCC4)n3)C2)cc1F | -2 | 0.27
C=CCNC(=O)[C@H](C)N(C)Cc1ccc(OC)cc1OC | -16 | 1.35
CC1CCN(C(=O)CC[C@]2(Cc3ccc4ccccc4c3)CCC(=O)N2)CC1 | 4 | -0.52

SMILES | % Inhibition [%] | Z score
O=C(c1nc2ccccc2[nH]1)N1CCC(Oc2ccc(CN3CCN(c4cccc(Cl)c4)CC3)cc2)CC1 | -15 | 2.1
Cc1ccc(Nc2nc(C)c(NC(=O)c3ccccc3C)c(Nc3ccc(C)cc3)n2)cc1 | -11 | 2.12
Fc1ccc(Cn2cc(C(F)(F)F)nc2-c2cccnc2)cc1F | -3 | 0.37
C[C@H]1CN(C(=O)c2cccn2C2CCCC2)CC2(CCC2)O1 | 0 | -0.01
CC(C)(C)c1csc(C2CCN(C(=O)C3=COCCO3)CC2)n1 | 1 | -0.15
CC(C)(C)c1cnc(COC(=O)COc2ccccc2F)o1 | -3 | 0.31
CC(=O)N[C@H]1[C@H](NC(=O)c2ccsc2)[C@@H]2CCO[C@@H]21 | -8 | 0.87
O=C(NCCc1ccc2c(c1)OCO2)N1CCN(c2nccs2)CC1 | -48 | 5.6
CCOc1cccc(CN(CCO)C(=O)c2ccc([C@H]3CCCNC3)cc2)c1 | -5 | 0.91
Cc1ccc(OC2CCN(Cc3ccncc3)CC2)c(C(=O)N2CC(O)C2)c1 | -24 | 2.54
CC1(C)CN(CC(=O)NC[C@H]2CCCO2)CC(C)(C)O1 | -11 | 1.14
Cn1cnc(CNC(=O)Nc2ccnc(C3(C)CC3)n2)c1 | -1 | 0.14
O=C(c1ncc[nH]1)N1CCC[C@H](C(F)(F)F)C1 | 4 | -0.46
O=C(CCC1CCCC1)Nc1ccc2c(c1)CCC2 | 2 | -0.28
Cc1cnc(C2CCC2)n1C[C@H]1CCCN(Cc2cn(C)c3ccccc23)C1 | 5 | -0.82
Cc1ccsc1C(=O)N1CCC(N2C(=O)CC[C@H]2C(=O)NCc2cccnc2)CC1 | 1 | -0.09
CCOC(=O)c1ccc(N2CCn3nc(C(=O)OC)cc3C2)nc1 | -3 | 0.38
Nc1ccc(-c2nc3cc(S(=O)(=O)c4ccc5oc(-c6ccc(N)cc6)nc5c4)ccc3o2)cc1 | 31 | -3.47
Cn1ccc(C(=O)N(C2CC2)C2CN(C(=O)OC(C)(C)C)C2)n1 | -5 | 0.68
